Hit rate of the full screen: of about 350,000 compounds, about 31,000 (8.9%) were called active. The inconclusive results got no clear call from the source; some entries with a clear call stand among them for comparison. The call rests on the fitted dose curve; in most records, active means well fitted inhibition curve with a large enough effect; inconclusive means small, poorly fitted or top-dose-only effect; inactive means no such curve, though single readings can be large or run the other way. Where the call is inconclusive, the potency comes from a doubtful curve fit.
Target: Histone-lysine N-methyltransferase EHMT2 (Homo sapiens) (UniProt Q96KQ7)
Assay: qHTS Assay for Inhibitors of Histone Lysine Methyltransferase G9a; further: nearly all actives have a fitted effect of over 75% in size
Conditions: G9a H3K9 monomethylation, AlphaScreen, 2 h; activity, negative = inhibition: at 59 µM (top of the series) unless noted
Procedure, shortened: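 Methyltransferase reactions run at room temperature for 2 h (20 nM enzyme, 500 nM biotin-H3K9 peptide, 20 uM SAM) after a 15 min compound preincubation; product detected by AlphaScreen beads and anti-H3K9me1 antibody.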
On the % scale 0 is the no-effect control and ±100 the full control effect; potency means the concentration at half of the fitted maximal effect; tags describe the fitted curve by direction and shape.

UniProt Q96KQ7, sequence (Q96KQ7 whole entry, looked up): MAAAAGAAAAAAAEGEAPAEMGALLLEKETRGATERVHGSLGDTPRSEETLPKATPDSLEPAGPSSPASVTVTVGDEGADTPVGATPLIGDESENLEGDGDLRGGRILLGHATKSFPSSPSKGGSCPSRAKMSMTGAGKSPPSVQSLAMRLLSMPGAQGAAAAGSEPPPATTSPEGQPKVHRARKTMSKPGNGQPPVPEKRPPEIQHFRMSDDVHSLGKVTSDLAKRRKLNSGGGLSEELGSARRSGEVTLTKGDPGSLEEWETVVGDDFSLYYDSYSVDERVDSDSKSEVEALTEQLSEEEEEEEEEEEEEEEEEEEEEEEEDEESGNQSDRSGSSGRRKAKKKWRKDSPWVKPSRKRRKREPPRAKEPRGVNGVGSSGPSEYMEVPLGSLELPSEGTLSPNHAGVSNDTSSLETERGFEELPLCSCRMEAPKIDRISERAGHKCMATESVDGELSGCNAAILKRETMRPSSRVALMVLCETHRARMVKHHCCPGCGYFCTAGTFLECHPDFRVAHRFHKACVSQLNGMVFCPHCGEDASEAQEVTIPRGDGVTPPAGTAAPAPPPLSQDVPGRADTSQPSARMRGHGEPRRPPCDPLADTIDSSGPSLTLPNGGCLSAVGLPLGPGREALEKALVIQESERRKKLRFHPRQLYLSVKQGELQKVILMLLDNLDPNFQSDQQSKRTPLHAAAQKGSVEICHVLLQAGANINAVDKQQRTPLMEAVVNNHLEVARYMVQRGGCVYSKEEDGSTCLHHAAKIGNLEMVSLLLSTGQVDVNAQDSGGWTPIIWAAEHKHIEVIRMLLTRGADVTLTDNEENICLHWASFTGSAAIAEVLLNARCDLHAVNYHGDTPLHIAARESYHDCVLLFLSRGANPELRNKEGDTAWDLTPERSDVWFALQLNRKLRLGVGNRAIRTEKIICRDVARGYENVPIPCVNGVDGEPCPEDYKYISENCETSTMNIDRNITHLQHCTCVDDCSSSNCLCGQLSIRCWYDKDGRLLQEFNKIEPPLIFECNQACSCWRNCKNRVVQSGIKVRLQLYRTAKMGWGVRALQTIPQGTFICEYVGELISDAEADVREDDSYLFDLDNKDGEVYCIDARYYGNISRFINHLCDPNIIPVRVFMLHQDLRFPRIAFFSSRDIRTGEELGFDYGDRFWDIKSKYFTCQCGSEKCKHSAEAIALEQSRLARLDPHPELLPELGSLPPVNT

Structure (SMILES)	Potency	activity, negative = inhibition
CCOC(=O)N1CCc2c(sc(NCc3cc(OC)ccc3OC)c2C(=O)Nc2cc(OC)ccc2OC)C1	active: 7.08 µM	
CCOC(=O)C1CCN(C(=O)C(CCSC)NC(=O)c2ccccc2OC)CC1 (stereo not given)		inactive: -1.71% [at 12.7 µM]
COC(=O)c1ccc(N/N=C/c2cc([N+](=O)[O-])cc(OC)c2O)cc1	inconclusive: 50.1 µM [inhibitor, partial curve, poor fit]	
CCN1C(=O)[C@@H]2[C@@H](c3ccc(-c4ccc(C(C)=O)cc4)cc3)N3CCCC[C@@]3(C(=O)OC)[C@@H]2C1=O		inactive: 16.7% [at 2.33 µM]
O=C(/C=C/c1ccco1)Nc1ccc(-c2nc3ccccc3[nH]2)cc1	active: 39.8 µM	
CC(=O)NS(=O)(=O)c1cccnc1Nc1cccc(Cl)c1		inactive: -23.6% [at 2.33 µM]
Cc1ccc(N(C)C(=O)Cn2ncc3c([nH]c4ccccc43)c2=O)cc1C	inconclusive: 25.1 µM [inhibitor, partial curve, poor fit]	
O=C(CCn1c(=S)[nH]c2cc3c(cc2c1=O)OCO3)N1CCc2ccccc2C1	inconclusive: 89.1 µM [inhibitor, single point]	
Nc1ccc(O)c2c1C(=O)c1ccccc1C2=O	active: 7.08 µM	
CSc1ccccc1C(=O)NCc1ccccc1	inconclusive: 50.1 µM [inhibitor, partial curve, poor fit]	
CC(=O)c1ccc(-c2ccc(/C=C(/Sc3n[nH]c(C)n3)C(=O)O)o2)cc1	inconclusive: 35.5 µM [inhibitor, partial curve]	
COc1ccccc1N1CCN(C(=O)C(C)CS(=O)(=O)c2ccc3c(c2)NC(=O)CS3)CC1 (stereo not given)		inconclusive: -79.4% [inhibitor]
Cc1nc(C)c(C(=O)Nc2nc3c(C)cccc3s2)o1	active: 14.1 µM	
COc1cccc2cc3c(=O)n(-c4ccccc4)nc-3oc12	inconclusive: 50.1 µM [inhibitor, partial curve]	
CCOC(=O)C1CCCN(Cc2c(Cl)cccc2Cl)C1 (stereo not given)	inconclusive: 25.1 µM [inhibitor, single point]	
COc1ccc(N2CCN(C(=O)Cn3cnc4sc(C)c(S(=O)(=O)N5CCCCC5)c4c3=O)CC2)cc1	inconclusive: 31.6 µM [inhibitor, single point]	
CC(=O)/C(=N/Nc1ccc([N+](=O)[O-])cc1)N1CCCc2ccccc21	active: 22.4 µM	
O=C(CSc1nc(=O)n(Cc2ccccn2)c2c1CCC2)Nc1ccc(F)cc1F		inactive: 9.04% [at 102 µM]
Cn1c2ccccc2c(=O)c2c(=O)n(Cc3ccco3)c(COc3ccccc3)nc21	inconclusive: 8.91 µM [inhibitor, single point]	
CCOCCCNC(=O)C1CCN(c2nc3ccc(C)cc3[nH]2)CC1		inactive: -2.15%
O=C(NNc1nc2c(F)cccc2s1)c1cc(=O)c2ccccc2o1	active: 35.5 µM	
COc1ccc(OC)c(C2C(C(=O)c3ccc(C)o3)=C(O)C(=O)N2c2cc(C)on2)c1 (stereo not given)	active: 50.1 µM	
NC(=O)C1CCN(C2CC(=O)N(c3cccc(F)c3)C2=O)CC1 (stereo not given)		inconclusive: -80.3% [inhibitor]
CS(=O)(=O)c1ccc2nc(NC(=O)c3cccs3)sc2c1	inconclusive: 56.2 µM [inhibitor, partial curve, poor fit]	

Structure (SMILES)	Potency	activity, negative = inhibition
CCOC(=O)C1=C(CC)Nc2ccccc2N=C1NC(=O)c1ccc(S(=O)(=O)N(C)C)cc1		inactive: -23%
COCCn1c(C)cc(O)c(C(c2ccccc2)N2CCN(c3ccccc3F)CC2)c1=O (stereo not given)	inconclusive: 39.8 µM [inhibitor, single point]	
O=C(CSc1nc2ccccc2o1)N1CCCC1	inconclusive: 39.8 µM [inhibitor, single point]	
COc1ccc(NC(=O)C(C)N2C(=O)C3CC=C(Cl)CC3C2=O)cc1 (stereo not given)		inactive: 5% [at 102 µM]
Cc1ccc(C(=O)OCC(=O)Nc2cc(C(C)(C)C)nn2-c2ccccc2)c(O)c1	inconclusive: 89.1 µM [inhibitor, single point]	
O=C(N/N=C/c1cccc(OCc2ccccc2)c1)c1ccc(Br)o1		inactive: -46.5% [at 102 µM]
CC(=O)c1ccc(NC(=O)CSc2ccsc2[N+](=O)[O-])cc1	active: 50.1 µM	
COCCN1C(=O)C(=O)/C(=C(/O)c2ccc(S(=O)(=O)N3CCOCC3)cc2)C1c1cccc(OC)c1 (stereo not given)	active: 70.8 µM	
CCOC(=O)C1CCN(C(=O)CC(NS(=O)(=O)c2ccc(OC)cc2)C(C)C)CC1 (stereo not given)		inactive: -22.1%
C=CCOc1ccc(/C=N/NC(=O)C(C)Sc2ccccn2)cc1OCC (stereo not given)		inactive: 11.1%
O=C(Nc1nc(-c2ccco2)cs1)c1ccccc1	inconclusive: 39.8 µM [inhibitor, single point]	
O=C(/C=C/c1ccccc1)N/C(=C\c1ccco1)C(=O)O	inconclusive: 44.7 µM [inhibitor, partial curve, poor fit]	
CSc1ccccc1NC(=O)CN(C)CC(=O)Nc1cc(C)ccc1C		inactive: 12.4%
CC(=O)Oc1c(S(=O)(=O)c2ccc(C)cc2)c(C)nn1-c1ccccc1	active: 11.2 µM	
O=c1nc(/C=C/c2ccccc2C(F)(F)F)cc(C(F)(F)F)[nH]1	inconclusive: 50.1 µM [inhibitor, partial curve, poor fit]	
C=CCc1ccc(O)c(-c2ccc(O)c(CC=C)c2)c1		inactive: 16.3% [at 12.7 µM]
CC1CCN(C(C(=O)NC2CCCCC2)c2cc3c(cc2[N+](=O)[O-])OCO3)CC1 (stereo not given)	inconclusive: 79.4 µM [inhibitor, single point]	
O=C(c1ccc(NS(=O)(=O)c2ccc(Cl)c(Cl)c2)cc1)N1CCOCC1		inactive: -44.6% [at 102 µM]
C=CCn1c(=O)c2c(nc3n2CC(C)CN3CCc2ccccc2)n(C)c1=O (stereo not given)	inconclusive: 79.4 µM [inhibitor, single point]	
Clc1ccccc1OCCN1CCCCC1	inconclusive: 20 µM [inhibitor, partial curve, poor fit]	
CCN(CC)S(=O)(=O)c1ccc(C)c(NC(=O)/C=C/c2cccs2)c1	inconclusive: 2.51 µM [inhibitor, full curve]	
CCCCC(=O)Nc1cccc(-c2nnc(-c3ccccc3)o2)c1		inactive: -3.9% [at 12.7 µM]
O=C(CSc1nc2c(c(C(F)(F)F)n1)CCc1ccccc1-2)NCc1ccccc1	inconclusive: 20 µM [inhibitor, partial curve, poor fit]	
O=C(CCN1CCN(S(=O)(=O)c2cccc([N+](=O)[O-])c2)CC1)Nc1ccccc1F		inactive: 24.4% [at 102 µM]

Structure (SMILES)	Potency	activity, negative = inhibition
Cc1cccc(-n2cc(CNCCc3nc(C)cc(C)n3)c(-c3cccc(F)c3)n2)c1	inconclusive: 8.91 µM [inhibitor, partial curve, poor fit]	
CC(C)NC(=O)C(=O)NC1CCCCCC1		inactive: 6.71% [at 102 µM]
CC(C)(C)c1nnc(NC(=O)CCS(=O)(=O)c2ccccc2)s1	active: 28.2 µM	
Cc1ccc(S(=O)(=O)C2(C(=O)Nc3nccs3)CC2)cc1	inconclusive: 50.1 µM [inhibitor, partial curve, poor fit]	
Cc1ccc(SC(CC(=O)c2ccc(C(C)(C)C)cc2)C(=O)O)cc1 (stereo not given)		inconclusive: -61.5% [inhibitor]
COc1ccccc1-c1nc(CNC(=O)NC2CCCCC2)c(C)o1		inactive: 7.43% [at 12.7 µM]
O=S(=O)(NC1=NCCC1)c1cccc(NC(=S)NCCc2ccccc2)c1	inconclusive: 25.1 µM [inhibitor, single point]	
COc1ccc(C(=O)N2CCN(CCCc3ccccc3)CC2)cc1OC	active: 15.8 µM	
CCCS(=O)(=O)c1c(S(=O)(=O)CCC)c2c(N)cccn2c1C(=O)c1ccc(Br)cc1	active: 11.2 µM	
Cc1cc(=O)c(C(=O)Nc2cccc(N3CCCC3=O)c2)nn1-c1ccccc1Cl	inconclusive: 3.98 µM [inhibitor, partial curve, poor fit]	
CC(C)C(=O)Nc1ccc(N2CCCC2)c(Cl)c1	inconclusive: 79.4 µM [inhibitor, single point]	
Cc1c(NC(=O)C(C)OC(=O)CCOc2ccccc2)c(=O)n(-c2ccccc2)n1C (stereo not given)	inconclusive: 7.94 µM [inhibitor, partial curve]	
S=c1[nH]cc(-c2ccccc2)n1-c1ccccc1Cl	inconclusive: 1.41 µM [inhibitor, full curve, poor fit]	
Cc1nn(-c2ccccc2)c2sc(C(=O)NCCN3CCOCC3)cc12	inconclusive: 56.2 µM [inhibitor, partial curve, poor fit]	
CC(C)c1ccc(NC(=O)c2cn(C3CCCC3)c(=O)c3c2c2ccccc2n3C)cc1		inactive: -29%
CN(C)c1cc(-c2ccc(Br)cc2)oc(=O)c1Cl	active: 50.1 µM	
CCN1CCN(c2cc(C)c3cc(NC(=O)c4cccnc4Cl)ccc3n2)CC1	inconclusive: 89.1 µM [inhibitor, single point]	
C/C=C/c1ccc(OCC(=O)Nc2cc(Cl)ccc2-n2cncn2)c(OC)c1	inconclusive: 44.7 µM [inhibitor, partial curve, poor fit]	
CC(C)CC(COCc1ccc(C(F)(F)F)cc1)N1CCN(C(=O)c2ccc(C(F)(F)F)cc2)CCC1=O (stereo not given)	inconclusive: 89.1 µM [inhibitor, single point]	
CC(=O)Nc1ccc(N=C(C2=C(O)c3ccccc3C2=O)c2ccccc2)cc1	active: 39.8 µM	
COc1ccc(NC(=O)C(Br)C(C)C)cc1 (stereo not given)	inconclusive: 50.1 µM [inhibitor, partial curve]	
CC(C)CN(CCCNC(=O)c1cc(=O)[nH]c2ccc(S(=O)(=O)N3CCCCCC3)cc12)CC(C)C		inactive: 2.17%
